Molecules are shown by their SMILES. In all, about 310,000 compounds went through this assay and about 2,200 (0.71%) showed an effect of 50% or more. Effects have a minus sign here. Some of the results follow.

The target of this test is human ether-à-go-go-related gene (hERG) potassium channel (human, UniProt Q12809). Nature of the test: primary screen, population patch clamp on CHO cells stably expressing hERG.
Sequence of human ether-à-go-go-related gene (hERG) potassium channel (Q12809 whole entry, looked up): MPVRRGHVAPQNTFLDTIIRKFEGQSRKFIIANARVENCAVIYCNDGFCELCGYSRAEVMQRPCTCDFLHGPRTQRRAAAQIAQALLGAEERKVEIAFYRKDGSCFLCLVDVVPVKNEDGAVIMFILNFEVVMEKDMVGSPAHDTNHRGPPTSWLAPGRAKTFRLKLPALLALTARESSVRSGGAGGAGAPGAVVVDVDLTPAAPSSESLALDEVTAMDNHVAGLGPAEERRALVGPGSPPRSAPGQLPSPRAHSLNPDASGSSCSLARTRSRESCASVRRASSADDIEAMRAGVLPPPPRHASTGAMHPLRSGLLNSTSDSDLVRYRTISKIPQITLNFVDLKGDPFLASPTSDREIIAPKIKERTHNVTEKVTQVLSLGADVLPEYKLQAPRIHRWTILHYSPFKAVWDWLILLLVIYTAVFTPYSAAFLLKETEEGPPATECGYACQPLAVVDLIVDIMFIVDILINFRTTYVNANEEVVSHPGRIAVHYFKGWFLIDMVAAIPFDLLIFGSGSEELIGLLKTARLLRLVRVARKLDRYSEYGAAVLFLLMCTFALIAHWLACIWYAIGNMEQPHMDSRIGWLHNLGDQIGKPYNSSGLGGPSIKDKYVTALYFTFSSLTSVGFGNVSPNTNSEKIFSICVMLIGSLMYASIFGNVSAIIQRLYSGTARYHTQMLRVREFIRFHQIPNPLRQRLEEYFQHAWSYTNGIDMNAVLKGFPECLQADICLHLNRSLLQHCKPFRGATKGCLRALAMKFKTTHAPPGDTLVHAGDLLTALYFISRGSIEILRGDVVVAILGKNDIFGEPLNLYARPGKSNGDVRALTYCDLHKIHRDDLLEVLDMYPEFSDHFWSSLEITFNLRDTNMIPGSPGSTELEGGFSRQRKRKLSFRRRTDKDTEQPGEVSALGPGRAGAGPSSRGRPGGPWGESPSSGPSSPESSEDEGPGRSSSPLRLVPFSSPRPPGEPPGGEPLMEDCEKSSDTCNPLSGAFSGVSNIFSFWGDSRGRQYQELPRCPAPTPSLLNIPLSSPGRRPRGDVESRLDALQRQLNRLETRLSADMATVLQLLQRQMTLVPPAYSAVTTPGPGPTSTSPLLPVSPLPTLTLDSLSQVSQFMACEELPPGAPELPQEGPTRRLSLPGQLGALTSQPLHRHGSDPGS
Take `CS(=O)(=O)Nc1ccc(C(=O)Nc2ccc(S(=O)(=O)N3CCCCC3)cc2)cc1`: the “hERG current change (%, negative = inhibition) at 1uM” value is on record as 10.9%.

For `CCSCCOC(=O)C1=C(C)N(C)C(=O)NC1c1cc(OC)ccc1OC` (stereo not drawn), the “hERG current change (%, negative = inhibition) at 1uM” value was found to be 1.72%.

In the case of `CCCCCCNC(=O)CCCCCNS(=O)(=O)c1ccc(OC)cc1`, the “hERG current change (%, negative = inhibition) at 1uM” value is on record as 6.08%.

In the case of `Cn1ncnc2c(=O)n(C)c(=O)nc1-2`, the “hERG current change (%, negative = inhibition) at 1uM” value turned out to be 1.86%.

Regarding `CCCCCCCCCCOC(=O)Cn1c(COc2ccccc2OC)[n+](C)c2ccccc21.[Cl-]`, the “hERG current change (%, negative = inhibition) at 1uM” value is -33.2%.

In the case of `Cc1cc(C)cc(OCCCCCNCCO)c1`, the “hERG current change (%, negative = inhibition) at 1uM” value is 6.66%.

For the compound `Cc1nnc(NC(=O)C2CCN(C(=O)c3ccco3)CC2)s1`, the “hERG current change (%, negative = inhibition) at 1uM” value was found to be 12.4%.

On to `COCCN1C(=O)C(=O)/C(=C(/O)c2ccc(S(=O)(=O)N3CCCCC3)cc2)C1c1ccc(OC)cc1` (stereo not drawn), for which the “hERG current change (%, negative = inhibition) at 1uM” value is listed as 11.9%.

As to `CCC(C(=O)NN1C(=O)c2ccccc2C1=O)c1ccccc1` (stereo not drawn), the “hERG current change (%, negative = inhibition) at 1uM” value came out at 13.8%.

For the compound `NC(=O)CNC(=O)[C@@H]1CC2(CC(c3cccc(Br)c3)=NO2)CN1C(=O)c1ccc(Br)cc1` (stereo partly drawn), the “hERG current change (%, negative = inhibition) at 1uM” value is 10.5%.

For `COc1ccc(S(=O)(=O)N(C)C)cc1NC(=O)c1ccc2c(c1)NC(=O)C(C)S2` (stereo not drawn), the “hERG current change (%, negative = inhibition) at 1uM” value is recorded as 13.4%.

For `Cc1ccccc1NC(=O)CSC(N)=O`, the “hERG current change (%, negative = inhibition) at 1uM” value was 24%.

Regarding `CC(C)CC(O)(CC(C)C)C(=O)NNc1ccccc1`, the “hERG current change (%, negative = inhibition) at 1uM” value came to 8.96%.

In the case of `Cc1cc(C(F)(F)F)nc(CCNCc2c(C(=O)N3CCCC3)nc3ccccn23)n1`, the “hERG current change (%, negative = inhibition) at 1uM” value is given as -7.53%.

For `Cc1ccc(NCc2nnc(SC(C)C(=O)N/N=C/c3ccc(C)o3)n2-c2ccccc2)cc1` (stereo not drawn), the “hERG current change (%, negative = inhibition) at 1uM” value is reported as 6.75%.

As to `O=C(CSc1nnc(CNC(=O)c2cccs2)o1)Nc1ccc2c(c1)OCO2`, the “hERG current change (%, negative = inhibition) at 1uM” value turned out to be 14%.

`COc1ccc(CNC(=O)c2cccc3c2C(=O)N(Cc2cccnc2)C3)cc1`: the “hERG current change (%, negative = inhibition) at 1uM” value is on record as -1.42%.

As to `CC/C(=N\NC(=O)c1c(-c2ccccc2)noc1C)c1ccc(C)o1`, the “hERG current change (%, negative = inhibition) at 1uM” value is 4.03%.

As for `CCN=C1SC(CC(=O)NCCc2ccc(OC)cc2)C(=O)N1CC` (stereo not drawn), the “hERG current change (%, negative = inhibition) at 1uM” value is 19.8%.

As to `NNC(=O)CNC(c1ccccc1)c1cc(Br)ccc1NC(=O)CCN1CCOCC1` (stereo not drawn), the “hERG current change (%, negative = inhibition) at 1uM” value is listed as 15.2%.

For the compound `COc1ccc(-c2noc(C3CCCN(C(=O)c4ccccc4OC)C3)n2)cc1OC` (stereo not drawn), the “hERG current change (%, negative = inhibition) at 1uM” value turned out to be 10.6%.

Consider `CCOC(=O)c1c(C)n(C)c2cc([N+](=O)[O-])c(O)c([N+](=O)[O-])c12`, for which the “hERG current change (%, negative = inhibition) at 1uM” value is 11.8%.

For the compound `O=C(O)CCC(C(=O)O)n1c(O)c(C2=c3ccccc3=NC2=O)sc1=S` (stereo not drawn), the “hERG current change (%, negative = inhibition) at 1uM” value is recorded as 17.5%.

With `C=COCCNC(=O)C(=O)NCC(C)C`, the “hERG current change (%, negative = inhibition) at 1uM” value was 8.35%.

Consider `Cc1ccc(OCCOCCn2ccnc2)c(Br)c1`, for which the “hERG current change (%, negative = inhibition) at 1uM” value is 1.98%.

Consider `Cn1c(CCN2CCCCC2)nc2cc([N+](=O)[O-])ccc21`, for which the “hERG current change (%, negative = inhibition) at 1uM” value was -54.8%.

Consider `CN1CCN(c2ccc(C(N)=O)cc2N)CC1`, for which the “hERG current change (%, negative = inhibition) at 1uM” value is given as 11.6%.

Take `O=C(/C=C/c1cccc([N+](=O)[O-])c1)Nc1cc(C(=O)O)cc(C(=O)O)c1`: the “hERG current change (%, negative = inhibition) at 1uM” value worked out at 8.4%.

For the compound `N/C(=N\OC(=O)C1CCCCC1)c1cccnc1`, the “hERG current change (%, negative = inhibition) at 1uM” value came to 17.2%.

In the case of `O=C(O)Cn1nc2c3c(cccc3c1=O)-c1ccccc1-2`, the “hERG current change (%, negative = inhibition) at 1uM” value stood at 8.49%.

Turning to `COc1ccc(OC)c(/C=N/NC(=O)CCc2c(C)n[nH]c2C)c1`, the “hERG current change (%, negative = inhibition) at 1uM” value amounted to 13.3%.

With `CSCCC(=O)N1CCC(n2nccc2NC(=O)CCCc2ccccc2)CC1`, the “hERG current change (%, negative = inhibition) at 1uM” value was found to be 8.23%.

Take `Fc1ccccc1/C=C/c1ccc2ccccc2n1`: the “hERG current change (%, negative = inhibition) at 1uM” value was determined as 14.3%.

As for `Cc1ccc(-n2nc(C)c3cc(C(=O)O)sc32)cc1`, the “hERG current change (%, negative = inhibition) at 1uM” value is listed as 0.904%.

Regarding `CCN(c1ccccc1)S(=O)(=O)c1ccc(Cl)c(NC(=O)COC(=O)C2CC2C)c1` (stereo not drawn), the “hERG current change (%, negative = inhibition) at 1uM” value came out at 13.7%.

On to `CC1CN(c2oc(-c3ccco3)nc2S(=O)(=O)c2ccccc2)CC(C)O1` (stereo not drawn), for which the “hERG current change (%, negative = inhibition) at 1uM” value was 1.21%.

On to `Cc1cc(Nc2ccc(F)cc2)nc(N)n1`, for which the “hERG current change (%, negative = inhibition) at 1uM” value was -14.2%.

On to `Cc1ccc(S(=O)(=O)CC(=O)Nc2ccc3nc(C)sc3c2)cc1`, for which the “hERG current change (%, negative = inhibition) at 1uM” value was 8.45%.

On to `CCCCC1CCC(C(=O)N(C)CC(=O)Nc2cccc(OC)c2)CC1` (stereo not drawn), for which the “hERG current change (%, negative = inhibition) at 1uM” value is 29.1%.

As for `Cc1cc2oc(C(=O)N(Cc3ccccc3)c3ccccn3)cc(=O)c2cc1Cl`, the “hERG current change (%, negative = inhibition) at 1uM” value turned out to be 10.6%.

As to `CC(C)(C)c1ccc(/C=C/C(=O)NCCCn2ccnc2)cc1`, the “hERG current change (%, negative = inhibition) at 1uM” value is -13.3%.

As to `NC(=O)c1cc(N2C(=O)C=CC2=O)ccc1Cl`, the “hERG current change (%, negative = inhibition) at 1uM” value was found to be 5.24%.

For the compound `O=C(Nc1ncc2c(n1)-c1ccccc1CC2)c1ccccc1`, the “hERG current change (%, negative = inhibition) at 1uM” value is -13%.

Turning to `CCN1CCc2nc3ccccc3c(C(=O)Nc3ccc(F)cc3)c2C1`, the “hERG current change (%, negative = inhibition) at 1uM” value is reported as -81.6%.

As for `COC(=O)Nc1cccn(Cc2c(Cl)cccc2Cl)c1=O`, the “hERG current change (%, negative = inhibition) at 1uM” value is given as 7.21%.

The values above are taken from article PMC4336329 (PLoS ONE, 2015).
